{
  "source": "paper PMC7905944",
  "about": "(Science signaling, 2020)",
  "proteins": {"B1": {"name": "endogenous LGR4 of OV90 cells (receptor)", "chain": "not shown"}},
  "molecular_target": "the molecule itself",
  "assay": "SDS-PAGE and western blot",
  "data": [
    {"protein": "B1", "values": [
      {"measurement": "stoichiometry N", "result": 2}
    ]}
  ]
}
